PubChem BioAssay AID485294 (National Center for Advancing Translational Sciences (NCATS), 2010)
In all, about 370,000 compounds went through this assay and about 150 (0.041%) were called active. The shares of active, inactive and inconclusive entries below differ from those in the screen. Calls follow the shape of the dose curve; as a rule, active = well fitted inhibition curve with a large enough effect; inconclusive = small, poorly fitted or top-dose-only effect; inactive = flat fitted curve, though single readings scatter. Potencies of inconclusive entries are left out as doubtful fits.

The compounds below were run against Beta-lactamase (Escherichia coli (strain K12)) (UniProt P00811) (assay: qHTS Inhibitors of AmpC Beta-Lactamase (assay with detergent)). Details: AmpC hydrolysis of nitrocefin, absorbance 480 nm, 0.01% Triton; activity change, negative = inhibition: at 114 µM (top of the series).
Procedure, shortened: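 20 mM phosphate pH 7.0 + 0.01% (detergent screen) or 0.0001% Triton X-100; 5.3 nM AmpC reagent; cpd preinc 15 min RT; nitrocefin (800 uM stock) to start; A480 q20 s × 4 min; Activity was normalised to no-enzyme and no-compound control wells.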
Also: nearly all actives have a fitted effect of over 25% in size.
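For activity change, negative = inhibition in this document: 0% = no-compound wells and -100% = no-enzyme wells.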
Potency is read from the fitted curve at half-maximal effect; tags tell the direction and shape of the fitted curve.

Sequence of UniProt P00811 (P00811 whole entry, looked up): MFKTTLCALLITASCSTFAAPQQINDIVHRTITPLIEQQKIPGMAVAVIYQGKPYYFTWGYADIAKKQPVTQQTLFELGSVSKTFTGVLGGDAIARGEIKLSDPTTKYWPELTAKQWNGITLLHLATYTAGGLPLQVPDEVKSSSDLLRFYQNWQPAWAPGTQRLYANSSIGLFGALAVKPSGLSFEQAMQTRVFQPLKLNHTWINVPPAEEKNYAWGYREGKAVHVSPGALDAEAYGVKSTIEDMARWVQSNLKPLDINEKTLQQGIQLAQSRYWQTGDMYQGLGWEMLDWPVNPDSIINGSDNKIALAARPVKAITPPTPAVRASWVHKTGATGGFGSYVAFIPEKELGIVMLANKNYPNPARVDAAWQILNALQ

SMILES	Potency	activity change, negative = inhibition
Cc1cccc(N(CC(=O)NC2CCCC2)C(=O)CCC(=O)Nc2ccccn2)c1	inconclusive [inhibitor, single point]	–
Cc1ccc(-c2nc(CS(=O)(=O)CC(=O)NC(C)CCc3ccccc3)c(C)o2)cc1 (stereo unspecified)	–	inactive: 7.81%
Cc1ccc(Nc2nc(N3CCN(C)CC3)nc(N)c2[N+](=O)[O-])cc1C	inconclusive [inhibitor, single point]	–
CCOc1ccc(S(=O)(=O)Nc2nc3ccccc3nc2Cl)cc1	inconclusive [inhibitor, full curve, poor fit]	–
c1cc2c(cc1-c1csc(NNC3=NCCCCC3)n1)OCCO2	–	inactive: 2.61%
O=C(Nc1nc2c(Cl)cccc2s1)c1ccc([N+](=O)[O-])o1	–	inactive: -9.44%
O=C(c1cc(COc2ccc(F)cc2Cl)on1)N(CCO)Cc1cccs1	–	inactive: 4.42%
Cc1c(Cl)cccc1-n1nnnc1-c1cccs1	inconclusive [inhibitor, full curve, poor fit]	–
Cc1ccc2c(c1)N(CC(=O)NCc1cccs1)C(=O)CO2	inconclusive [inhibitor, full curve]	–
CCOC(=O)C1CCCN(C(=O)c2cn(CC)c(=O)c3cc(OC)c(OC)cc23)C1 (stereo unspecified)	inconclusive [inhibitor, single point]	–
COC(=O)c1ccccc1S(=O)(=O)N1CCC(C(=O)OCc2cccc(OC)c2OC)CC1	inconclusive [inhibitor, full curve, poor fit]	–
Cc1noc(C)c1COC(=O)C(c1ccccc1)c1ccccc1	inconclusive [inhibitor, full curve, poor fit]	–
COc1ccc(C(=O)CSc2nnc(CN3CCCCC3)n2-c2ccc(Cl)cc2)cc1OC	inconclusive [inhibitor, full curve]	–
COc1ccccc1C(C)NCC(=O)Nc1ccccc1C(F)(F)F (stereo unspecified)	inconclusive [inhibitor, full curve, poor fit]	–
CC(C)Cc1nn2cc(-c3cccc(Br)c3)nc2s1	–	inactive: 17.3%
COc1ccc(C(=O)NC(Cc2c[nH]c3ccccc23)C(=O)O)cc1 (stereo unspecified)	inconclusive [inhibitor, single point]	–
CC(=O)N1CCc2cc(S(=O)(=O)NC(Cc3ccccc3)C(=O)NC3CCCCCC3)ccc21 (stereo unspecified)	inconclusive [inhibitor, partial curve, poor fit]	–
CCOc1ccc2nc(N3CCCC(C(=O)NCCc4ccc(OC)cc4OC)C3)sc2c1 (stereo unspecified)	–	inactive: 17.2%
CCCCN(CC)CCNC(=O)Cn1cnc2sc(C)c(S(=O)(=O)N3CCN(c4ccccc4OC)CC3)c2c1=O	–	inactive: -5.65%
CC1CC(C)CN(CCCNC(=O)c2nn(C)c3c2CS(=O)(=O)c2ccccc2-3)C1 (stereo unspecified)	inconclusive [inhibitor, full curve, poor fit]	–
COc1ccc2c(CC(=O)OCC(=O)Nc3sc4c(c3C#N)CCC(C)C4)coc2c1 (stereo unspecified)	inconclusive [inhibitor, full curve]	–
O=C(O)CCc1ccc(-c2ccc(Br)cc2)n1-c1ccccc1O	–	inactive: 23.3%

SMILES	Potency	activity change, negative = inhibition
CCN(CC)S(=O)(=O)c1cccc(NC(=O)Nc2cccc(C(F)(F)F)c2)c1	inconclusive [inhibitor, full curve, poor fit]	–
Cc1ccc2nc(SCc3nc4cc(Cl)ccc4c(=O)[nH]3)[nH]c2c1	inconclusive [inhibitor, single point]	–
Cc1cccc2cc(CN(CCCO)C(=O)Nc3ccccc3Cl)c(=O)[nH]c12	inconclusive [inhibitor, full curve, poor fit]	–
CCOCCCNC(=O)c1ccc(-c2nc(CS(=O)(=O)c3ccccc3)c(C)o2)cc1	–	inactive: -4.72%
CCCC(=O)NC(=S)Nc1ccc(C(C)=O)cc1	inconclusive [inhibitor, full curve, poor fit]	–
CCn1c(C(=O)N2CCC(C(=O)NCc3ccc4c(c3)OCO4)CC2)cc2sccc21	inconclusive [inhibitor, full curve, poor fit]	–
Cc1ccc(C(=O)N2CCN(Cc3ccc4c(c3)OCO4)CC2)cc1S(=O)(=O)N1CCOCC1	–	inactive: -3.13%
CC1CCN(C(=O)CCC(=O)N2CC(C)Oc3ccccc32)CC1 (stereo unspecified)	inconclusive [inhibitor, full curve, poor fit]	–
Cc1ccc(-c2nc3ccccc3s2)cc1NC(=S)NC(=O)/C=C/c1ccco1	–	inactive: 5.05%
O=C(CCCCn1c(=O)[nH]c2ccccc2c1=O)NCCc1c[nH]c2ccccc12	inconclusive [inhibitor, partial curve, poor fit]	–
COc1ccc(C(=O)NC2CC2)cc1OC1CCN(Cc2ccc(F)cc2F)CC1	inconclusive [inhibitor, partial curve, poor fit]	–
N#CC1(NC(=O)CN2C(=O)NC(c3ccccc3)(c3ccccc3)C2=O)CCCC1	–	inactive: 2.21%
CC1(C)Oc2ccc(C(=O)N3CCc4ccccc43)cc2N(CC(=O)N2CCCC2)C1=O	inconclusive [inhibitor, full curve, poor fit]	–
Cc1cc(C(=O)NCCCc2ccccc2)no1	inconclusive [inhibitor, single point]	–
O=C(O)/C=C/C(O)c1ccc(Cl)cc1 (stereo unspecified)	inconclusive [inhibitor, full curve, poor fit]	–
Cn1c2cc(Br)sc2c2cnn(Cc3c(F)cccc3F)c(=O)c21	–	inactive: 7.35%
O=C(Nc1cccc(S(=O)(=O)NC2=NCCCCC2)c1)c1cc(-c2ccccc2Cl)nc2ccccc12	inconclusive [inhibitor, partial curve]	–
Cc1ccc(-c2c(C(=O)N/N=C/c3ccco3)nnn2-c2nonc2N)cc1	–	inactive: -1.03%
COc1ccc(S(=O)(=O)Nc2ccccc2C(=O)NCc2ccco2)cc1	inconclusive [inhibitor, single point]	–
CCCn1nnc(NC(=O)c2ccc(-c3ccccc3)cc2)n1	inconclusive [inhibitor, partial curve, poor fit]	–
CN(Cc1ccccc1)C(NC(=O)c1ccco1)C(Cl)(Cl)Cl (stereo unspecified)	inconclusive [inhibitor, full curve]	–
COC(=O)c1cccc(NC(=O)CN(c2ccc3c(c2)OCO3)S(C)(=O)=O)c1C	inconclusive [inhibitor, full curve]	–

SMILES	Potency	activity change, negative = inhibition
O=S(=O)(c1cccc(-n2cnnn2)c1)N1CCOCC1	inconclusive [inhibitor, partial curve]	–
O=C(CNS(=O)(=O)c1c(Cl)cccc1Cl)OCc1csc(-c2ccccc2)n1	inconclusive [inhibitor, full curve, poor fit]	–
O=C(C[N+]1(CC#Cc2ccccc2)CCOCC1)c1ccccc1	–	inactive: -9.9%
COc1cccc(C(=O)/C=C/Nc2cccc(O)c2)c1	inconclusive [inhibitor, single point]	–
O=C(Nc1cccc(-c2ccc(N3CCCCC3)nn2)c1)c1ccc(Br)o1	inconclusive [inhibitor, full curve, poor fit]	–
CCOC(=O)c1sc(N2C(=O)C(O)=C(C(=O)c3ccco3)C2c2ccc(C)o2)nc1C (stereo unspecified)	–	inactive: 0.263%
COc1ccc(C(=O)Nc2sc3c(c2C#N)CCN(C(C)=O)C3)cc1	–	inactive: 2.48%
Cc1cccc(NC(=O)CCOc2ccccc2)c1	inconclusive [inhibitor, full curve]	–
Cc1cc(C)nc(/N=C2\NC(=O)CC(C(=O)O)N2c2ccc(Oc3ccccc3)cc2)n1 (stereo unspecified)	inconclusive [inhibitor, single point]	–
CCOc1cccc(-c2nc3ccccc3c(=O)o2)c1	–	inactive: -1.32%
COC(=O)c1c(NC(=O)C(C)C)sc2c1C(C(=O)OC)CC2 (stereo unspecified)	inconclusive [inhibitor, single point]	–
COc1ccccc1NC(=O)C(=O)c1cc(C)n(-c2cc(C)cc(C)c2)c1C	inconclusive [inhibitor, full curve, poor fit]	–
Cc1cc(-c2n[nH]c(=S)n2/N=C/c2ccc(Cl)c([N+](=O)[O-])c2)n[nH]1	–	inactive: -4.87%
COc1ccc(NC2CCCN(C(=O)c3ccc(OC)cc3OC)C2)cc1 (stereo unspecified)	inconclusive [inhibitor, full curve, poor fit]	–
Cc1ccc(S(=O)(=O)N2CCCCC2C(=O)N2CCN(c3ccccc3F)CC2)cc1 (stereo unspecified)	inconclusive [inhibitor, full curve, poor fit]	–
COc1ccccc1NC(=O)C(C)N1CCN(C/C=C/c2ccccc2)CC1 (stereo unspecified)	inconclusive [inhibitor, full curve, poor fit]	–
CC(=O)c1cccc(NC(=O)c2cc(S(=O)(=O)N3CCOCC3)cs2)c1	–	inactive: 2.53%
CCOc1ccc(N(C(=O)CNC(=O)c2ccco2)C(C(=O)NC2CCCC2)c2ccncc2)cc1 (stereo unspecified)	–	inactive: 3.16%
CCCCC(=O)C1CCN(Cc2ccccc2)CC1	inconclusive [inhibitor, partial curve, poor fit]	–
COCCN(CC(=O)Nc1cccc(C)c1C)C(=O)c1cc(S(=O)(=O)N2CCCC2)ccc1C	inconclusive [inhibitor, single point]	–
COC(=O)c1ccccc1NC(=O)CS(=O)(=O)Cc1nc(-c2ccc(C)cc2)oc1C	–	inactive: -7.41%
Cn1c(O)c(C(c2ccccn2)c2c(O)n(C)c(=S)n(C)c2=O)c(=O)n(C)c1=S	inconclusive [inhibitor, full curve]	–
